{
  "source": "PubChem BioAssay AID330",
  "about": "(DTP/NCI, 2004)",
  "tested_on": "P388 leukemia ip, CD2F1 mice, survival T/C",
  "assay": "NCI In Vivo Anticancer Drug Screen. Data for tumor model P388 Leukemia (intraperitoneal) in CD2F1 (CDF1) mice",
  "conditions": "endpoint: median survival time, higher = longer survival",
  "note": "Inconclusive results and toxic doses are left out. A number of entries come with more than one value. The other results are left out here. The source may hold further records. The values listed for one entry do not match, cause unknown; they may come from other doses, times, organisms or constructs than stated. Brackets with × give the number of equal values in this list.",
  "data": [
    {"smiles": "NC(CC(=O)CCl)C(=O)O", "note": "(centres undefined)", "values": [
      {"measurement": "T/C", "setting": "dose: 25.0 mg/kg/injection, schedule: Q04DX003 (ip), vehicle: saline", "value": "116 % of control and 160 % of control (2×)"}
    ]},
    {"smiles": "O=S(=O)(Nc1ccc2ccccc2c1)N1CCCCC1", "values": [
      {"measurement": "T/C", "setting": "dose: 50.0 mg/kg/injection, schedule: Q01DX009 (ip), vehicle: Klucel (hydroxypropylcellulose) (HPC)", "value": "93 % of control, 101 % of control, 160 % of control"},
      {"measurement": "T/C", "setting": "dose: 100.0 mg/kg/injection, schedule: Q01DX009 (ip), vehicle: Klucel (hydroxypropylcellulose) (HPC)", "value": "101 % of control (2×) and 160 % of control"},
      {"measurement": "T/C", "setting": "dose: 200.0 mg/kg/injection, schedule: Q01DX009 (ip), vehicle: Klucel (hydroxypropylcellulose) (HPC)", "value": "99 % of control, 105 % of control, 173 % of control"}
    ]}
  ]
}
